The source gives no read counts; variants with many changes may rest on few reads.
B1: LINE1-mini (parent)
chain: GGCAGAGCUCAACACAGCGUGGCAAAGUGGCUGUGGCUAGACUGCC

Variants of: B1
Assay: self-cleavage, relative activity (ratio to wild type); higher = more cleavage; in vitro, sequencing; the parent is a self-cleaving ribozyme

Variant | self-cleavage
C8U U32G U43A C46G | 0.08
C8A U28G C31G U34A | 0.33
C3A A4G C13U | 0.46
C23A G30U U32C U38A | 0.67
U9A C15A U32G C37A | 0.2
C10U C13G U20A | 0.12
G5C A11C C15U C31G | 0.02
C3G C10A G33U U43C | 0.01
C8A A16C A24C G33C G40U | 0.14
G7U C13G G21A G22U U34A | 0.32
G5U G21U G35U | 0.04
C3A C13U G29C C31U C37U | 0.87
A4G G22C G30C C31G | 0.07
G1A C13G U20C A24C G35C | 1.76
G29C U34G C37G | 0
A4U A41U C42A | 0.07
C8A G33A U38C | 0.4
G2C A12G G19U A24C | 0.01
G1C C3G C13A | 0.11
C3G C8U U9C G30U A41C | 0
G22A A25U G29U | 1.87

Variant | self-cleavage
G7A G19U C23G G40U C46U | 0.06
G5U U9A G17C U34G | 0
U9C A11U G29U | 0.01
A6U C8U A12U G17C G22A | 0.66
C10G C18U G33U G36U C42A | 0
G2U G19C C23A C31A C37U | 0.05
C10A A14C C23U | 0.01
C3G A16C G22U A41U G44C | 0.01
A6U C15G C18U C23A G30U G33A | 0.04
G5U G7A C13A G30U | 0.29
A12U C13U C42A G44A | 0.38
A16G A39G G44U | 0.01
G1A G19C U38C | 0.52
A11C A24G G36A | 0
G36C U38A G44U | 0
G17C G30A C31A G35U G44A | 0.02
G5A A12C U28A C31G | 0.02
G17C G29A G33U C45U | 0.06
G19C G40C G44U | 0.06
C8U G17U G30A A41C G44U | 0.12
A11C G19C A26G | 0.04

Variant | self-cleavage
G2C G35A G36A G40U C42G | 0.03
C3A A25G G30U C37A | 0.16
C3A A11C G21U | 0.05
A6G A11U G21C U34G | 0
G2A C3U A6C U34C U38A | 0.16
A24U U28A G29C C31G | 0.28
C10U A12C C13A G40C | 0.04
G1C C10G C15U C18U G27A G44U | 0
G1C A12U G19U G22U | 0.02
A11G A14C G17A C18G A25C A41G | 0.01
C8A A16U U34C | 0.08
C18A G22U A26G C45A | 0.03
C8G G30U G44U C46G | 0
G1A G35A C37U | 0.09
G2C C15A A24C G27A C37A | 0.03
G1C A4G G5U C8U C31U U43C | 0.02
A25G U28A U34A | 0.02
G1C G17A C18A U20C G36A | 0.01
G2C A4C G5U | 0.03
A11G A26C U38C | 0.02
C8U C18A A25C G35A C42U C46U | 0.1

Variant | self-cleavage
C18U U20A A26U | 1.11
A4U G22C A25G C37U | 0
G19U U20A U28A G40C | 0.02
C8U G21C G29A G30A | 0.35
G7A A16C U20G | 0.05
G7U C13A G19C G27C G44A | 0
C10U G29C G35A | 0.06
C10A U28A U32G | 0.06
A14U A24C U43C | 0.05
G2A C10A A12G A16U | 0.03
C15A A16G G30U | 0.17
C8A U9G A16G C23A G27A G33U G36A | 0.04
C13U A16U G44U | 0.03
A12G G21U A41U C42U | 0.71
A12G U20A G21U | 0.04
C13G A26C A41C | 0
C15U U28C C31A U32C C37A | 0.01
C10A G29A C31U | 0.15
A25U C37U A39U U43C | 0.02
C3U C10A G35C | 0.03
